According to the supplement of paper PMC11417369:
The list shows a part of the results.

The sequences below were run on PfAP2-HC AP2 domain (GST-tagged) (assay: gcPBM binding intensity (ln(normalized median fluorescence intensity)); higher = stronger DNA binding).
Summary of the method: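 GST-tagged P. falciparum DNA-binding domains produced in E. coli were incubated for 1 h on an Agilent 4 × 180k array of primer-extended double-stranded 36-bp intergenic genomic probes with negative controls. Binding intensity is the highest Masliner-normalised natural-log median intensity across replicate spots of either probe orientation, with bound protein detected by Alexa488 anti-GST antibody at 488 nm.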

Going from “TATATACATACATATACACACATATATATATATATA [CACACA_site401]” to “GTATAAAATATTGATTGTACTTTATTCATTTTTTTT [XGTACX_site2520]”, the “gcPBM binding intensity (ln)” value falls from 9.77 to 9.56.

“TCATATTCCAAGTGTACACATAAATCCCTAATAACA [CACACA_site5167]” and “TCATTGTTTAATATGTGTCCTCAAAATTTGTTATAT [XGTACX_site677]” are the same in “gcPBM binding intensity (ln)” value: 9.61 for the first, 9.61 for the second.

Going from “ACAATTCATTAGAATTGTACAAAAGGATGAAGCGAA [XGTACX_site5242]” to “ATTTAATACAAATACACACACAAATATGTACCTATA [CACACA_site7718]”, the “gcPBM binding intensity (ln)” value rises from 9.92 to 10.3.

Compared with “ATTTTTTTTTTTTAATTTGATATTTGCGTTTATATA [CACACA_negctrl_site1305]”, “CATTTAGTTCATACTATGCACACTACGTATATTTTT [CACACA_site2694]” is higher in “gcPBM binding intensity (ln)” value: 9.71 for the first, 10 for the second.

Going from “AATGCACAGCTCTTAGGCAAAAGTGGGTATTTACAC [GTGCAC_negctrl_site579]” to “TGTATAAAAAACTAATGTACAAATGACAAGATATCT [XGTACX_site4600]”, the “gcPBM binding intensity (ln)” value rises from 9.62 to 9.65.

First: AAAAAATGTTAAAAAAGTACTTTCTTTATTTAATAA [XGTACX_site2908]
Second: AACAATTGTTAAAGGTGTACCATATGTATATAAGAA [XGTACX_site5723]
The “gcPBM binding intensity (ln)” value of the first is lower: 9.45 for the first, 9.8 for the second.

“AGACGTAATAATTGTTGTACATAAAAAAATAAGAAA [XGTACX_site7594]” and “TGTGTTAGCAAAAAAGTGCACAGGGAAAAAAAAATA [GTGCAC_site9397]” are the same in “gcPBM binding intensity (ln)” value: 9.8 for the first, 9.8 for the second.

Going from “ATGATATTATAAAAAAGTACATATGTATATAATTAT [XGTACX_site7652]” to “TTTTGTTATGGTTTGATGCACTTATATATAAATATT [GTGCAC_site9705]”, the “gcPBM binding intensity (ln)” value falls from 9.89 to 9.86.

First: ATGTAGATAAAACGTGTGCACATGTTTTTTGTTATT
Second: CACAGTGATATAAAAACACACATGAATTATAATTTC [CACACA_site1667]
The “gcPBM binding intensity (ln)” value of the first is higher: 10.5 for the first, 9.75 for the second.

Compared with “ATATATATATATATATGTACTTATTACCAATGTTAG [XGTACX_site1896]”, “AAGCCCATTATTAAATGTACAAAATTTTATAAACTA [XGTACX_site7800]” is lower in “gcPBM binding intensity (ln)” value: 9.56 for the first, 9.35 for the second.

Going from “TAAAACATATATACAAGTACACAAAGGATATATATA [XGTACX_site3710]” to “GTATATATGTATATATGTACATATATATAATATATT [XGTACX_site56]”, the “gcPBM binding intensity (ln)” value falls from 9.85 to 9.63.

Compared with “CAGTGCCAAATTAGCACACACATATATACATGAATT [CACACA_site2814]”, “TATAGGTATTTATATACACACATATTCTTTTTACAC [CACACA_site6686]” is lower in “gcPBM binding intensity (ln)” value: 9.93 for the first, 9.92 for the second.

First: AAATTAAAATAAAAATGTACATATAAAGACACAACT [XGTACX_site3132]
Second: CTTACCAAAAGACACACACACACAAGATATATAAAT [CACACA_site6964]
The “gcPBM binding intensity (ln)” value of the first is lower: 10.2 for the first, 10.4 for the second.

Compared with “TACAATATTTTGAGACGTACATATATACATTTACAT [XGTACX_site5880]”, “TGAACTTACTTGGACATACACACATATATATATATA [CACACA_site2977]” is higher in “gcPBM binding intensity (ln)” value: 9.84 for the first, 9.85 for the second.

Compared with “TATATATATATACCAACACACATACAGATATATATA [CACACA_site5060]”, “TTTATATACAAAAATGCACACGAAAAGTAATATATA [CACACA_site9387]” is lower in “gcPBM binding intensity (ln)” value: 10.1 for the first, 9.8 for the second.

Compared with “TGTAAGTCGTTATAAGCACACACATAAATAAAAATA [CACACA_site8448]”, “ATTTAAATACAAAATTGTACTTTTCTATATTTAACA [XGTACX_site6146]” is lower in “gcPBM binding intensity (ln)” value: 9.99 for the first, 9.55 for the second.

First: AAATTTTAAATAGTATGTACGTATGAAATATATATG [XGTACX_site7511]
Second: ACCCATTTAACAAAATGTACATTATTATAATTACTT [XGTACX_site7105]
The “gcPBM binding intensity (ln)” value of the first is lower: 9.7 for the first, 9.72 for the second.

Compared with “TTTGGAAAAAAATTATTTAAACGATATGAATTGATG [XGTACX_negctrl_site506]”, “AAAATTTTACAGAAGGTGCGTATATTTTCCTGCTTA [GTGCAC_site9643]” is higher in “gcPBM binding intensity (ln)” value: 9.38 for the first, 9.65 for the second.

Going from “AATCATCTCATAAAAATTAATTAGTGTATGTCTTTT [TGCATGCA_negctrl_site416]” to “CTACTTATAAATAGAACACACATAAGTGTATTTGTA [CACACA_site3759]”, the “gcPBM binding intensity (ln)” value rises from 9.6 to 9.64.

Compared with “ACAATATAGATTAAAAGTACAAATAGTAAATTATAT [XGTACX_site3165]”, “TCTTAAATATATAAATTGAAAAATATAAAAGTAATA [CACACA_negctrl_site1558]” is lower in “gcPBM binding intensity (ln)” value: 9.85 for the first, 9.19 for the second.

Compared with “AAAACAATATACTGTAGTACTGATGATATATATATA [XGTACX_site7798]”, “ATAAAAAAAAATAGCACACATAAATATATTATATAT [CACACA_site767]” is higher in “gcPBM binding intensity (ln)” value: 9.8 for the first, 10.1 for the second.

Going from “AAAAAATACCTCTATAGTACATATATATAATATTTA [XGTACX_site7222]” to “AAAAAAAATTTATTTGCATGCAAAAAAAAAAAAAAA [TGCATGCA_site67]”, the “gcPBM binding intensity (ln)” value falls from 9.58 to 9.39.

Compared with “TAATTATGTATGAACTGTACAGGTTATTTTATTTTA [XGTACX_site5204]”, “TAAAATTTAAATTATACACACTTAAGTAACATCATC [CACACA_site4450]” is higher in “gcPBM binding intensity (ln)” value: 9.61 for the first, 9.73 for the second.

First: ATTTATTTCACAAAAACATGCAGTTTGAAATTGCCA [TGCATGCA_site910]
Second: AATTCATTATATATACGTACATATTTCTGTATAAAA [XGTACX_site6371]
The “gcPBM binding intensity (ln)” value of the first is lower: 9.39 for the first, 9.51 for the second.

Compared with “GCATAAATTATCATAACATAAATATAAAAATATAAT [GTGCAC_negctrl_site55]”, “GATTATTTTATAAGTACACACATTTATATATAATAA [CACACA_site2573]” is higher in “gcPBM binding intensity (ln)” value: 9.63 for the first, 9.68 for the second.

Compared with “TTATATAGGTCATTCATAAATACAGTTTTTAAAAAA [CACACA_negctrl_site1340]”, “TTCATGCTTATATGTGCACACACAAAAGAAAAGAAA [CACACA_site1656]” is higher in “gcPBM binding intensity (ln)” value: 9.47 for the first, 10.1 for the second.

First: AAATAATAAATTATAACACACATATATATATATATA [CACACA_site4045]
Second: ATAATACAATTTATAACACACACACTATAATACATA [CACACA_site8338]
The “gcPBM binding intensity (ln)” value of the first is lower: 9.6 for the first, 10.4 for the second.

Going from “GGAAAGACAGTTCACAGTACCCAGTAACTCTACGGA [XGTACX_site2009]” to “TTTCACCATATAAACGTGCACACTACAAAAATATAT [CACACA_site2547]”, the “gcPBM binding intensity (ln)” value rises from 9.55 to 9.72.

Compared with “AAATAATGAAACAAAGTGCATAAAAATATACATATA [GTGCAC_site9467]”, “CATTAAAATATGAGATGTACACAATATCTATTATAT [XGTACX_site4979]” is lower in “gcPBM binding intensity (ln)” value: 9.85 for the first, 9.63 for the second.

First: ATGGATTATACGTGCACACATATATACCAATAAATA [CACACA_site4524]
Second: ATTTAAATATCTTCTTTTTTTTTTTTTTTTGAAATT [CACACA_negctrl_site1074]
The “gcPBM binding intensity (ln)” value of the first is higher: 9.99 for the first, 9.21 for the second.

First: GAGCGTAATCTATTTGCACACTTATTTGTTCTTAAA [CACACA_site673]
Second: GTGTATAATATAGGATGTACAATAAAACACCGATTG [XGTACX_site7429]
The “gcPBM binding intensity (ln)” value of the first is higher: 9.87 for the first, 9.82 for the second.

First: TTGTTTATCAACAGCACACACAACAACAACAACAAC [CACACA_site458]
Second: ATAAAAACATAAACAAATCAAAAAAAAAAAAAAAAA [CACACA_negctrl_site13]
The “gcPBM binding intensity (ln)” value of the first is higher: 9.99 for the first, 8.9 for the second.

First: AATGGCAAAATAGGCACACACACATATACATATATA [CACACA_site1058]
Second: TGTGCACATAATTAGTGTACATTTTTTATTTAGACA [XGTACX_site317]
The “gcPBM binding intensity (ln)” value of the first is higher: 10.9 for the first, 9.45 for the second.

Going from “AATTATATTTGAAATACACACATAAAAATCATATAG [CACACA_site3468]” to “AAAAAAAAAAAAAATACACACATATAAATATAAATA [CACACA_site6189]”, the “gcPBM binding intensity (ln)” value rises from 9.82 to 9.85.

Going from “CTTATTGATTTAAAAAGTACATATATGTATATACAC [XGTACX_site4072]” to “ATTAGAGAATCGTAACCCAAATGAACATACTTAAAT [GTGCAC_negctrl_site363]”, the “gcPBM binding intensity (ln)” value rises from 9.59 to 9.61.

Going from “AGATTTAAATATCATACACACTTTATATATAATACA [CACACA_site4688]” to “GTGTACAGACACAAAATATATACATATATATATATA [CACACA_negctrl_site1796]”, the “gcPBM binding intensity (ln)” value falls from 9.7 to 9.51.

Compared with “TGTTATATGTTCAAATGTACAAATCATATACATGTT [XGTACX_site3192]”, “AATATATAAACCGAACGTACATATTTTTTATACACC [XGTACX_site2121]” is higher in “gcPBM binding intensity (ln)” value: 9.64 for the first, 9.75 for the second.

First: ATTATTTTCTCATAGAGTACAAATGTTGTTGTTGTC [XGTACX_site1062]
Second: TATTTTCATAATAAAAAAAAATAATTTAAAAAATAT [CACACA_negctrl_site748]
The “gcPBM binding intensity (ln)” value of the first is higher: 9.61 for the first, 9.26 for the second.

First: TTTTTATTTTTAGTAGTGCATTAATCATATGGTCAT [GTGCAC_site9879]
Second: TAAATAAATCCACATACACACACGACGCTAGTATAT [CACACA_site1060]
The “gcPBM binding intensity (ln)” value of the first is lower: 9.53 for the first, 9.97 for the second.

Compared with “AATATTTTATTTTTTCTCATTAAAAATTTTTTTTTT [CACACA_negctrl_site364]”, “GATAGATAATATTTTAGTACATAAACAATTAAATAT [XGTACX_site4125]” is higher in “gcPBM binding intensity (ln)” value: 9.52 for the first, 9.64 for the second.

Going from “ATAATATTTTATAATTGTACTTTTTATAAATATAAA [XGTACX_site1940]” to “CATATTTACATTAAGTGTACTTATGAATATATATAC [XGTACX_site7962]”, the “gcPBM binding intensity (ln)” value rises from 9.39 to 9.62.

Going from “AAAATACATATATATATATATAATATTGTTGTTAAA [GTGCAC_negctrl_site519]” to “ATATTTTTTTTCATTTGTACACATAAAATTATATAG [XGTACX_site8260]”, the “gcPBM binding intensity (ln)” value rises from 9.64 to 9.68.

First: ATTATTCGTTTTAAATGTACTCATATAAACGATAAA [XGTACX_site7866]
Second: CAAAAGAAGGTAAACACACACACACCCATACAAAAA [CACACA_site3765]
The “gcPBM binding intensity (ln)” value of the first is lower: 9.28 for the first, 10.7 for the second.

First: TTTTATAATTTCAAAGGATTCTTTAATATTATAAAT [CACACA_negctrl_site1812]
Second: AAATTATATATAATAAATAATTTCTTTTTCTAAAAG [CACACA_negctrl_site8]
The “gcPBM binding intensity (ln)” value of the first is higher: 9.32 for the first, 9.22 for the second.
